According to PubChem BioAssay AID1508623 (National Center for Advancing Translational Sciences (NCATS), 2021):
The campaign covered roughly 48,000 compounds. About 450 (0.94%) were called active. This list was built around the results that the source calls inconclusive (neither active nor inactive); the mix of calls is not that of the screen. The call rests on the fitted dose curve; in most records, active means well fitted inhibition curve with a large enough effect; inconclusive means small, poorly fitted or top-dose-only effect; inactive means no such curve, though single readings can be large or run the other way. A potency beside an inconclusive call is a rough fit, not a confirmed value.

test: Primary qHTS for Identification of Small Molecule Inhibitors of Huntingtin Promoter Activity; settings: HEK293 HTT promoter firefly luciferase reporter (activity 0% = vehicle and -100% = no light), 24 h; series mostly up to 57.5 µM; activity change, negative = inhibition: at the top concentration; further: nearly all actives have a fitted effect of over 50% in size
Method in brief: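 Firefly luciferase signal from promoter-reporter HEK293 cells was scaled between vehicle (0%) and zero RLU (-100%). Compounds were tested at final concentrations of up to 57.5 uM over 24 h at 37 degrees C. PTC124 at 50 uM final served as control inhibitor.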
Potency means the concentration at half of the fitted maximal effect; tags describe the fitted curve by direction and shape.

| Compound | activity change, negative = inhibition | Potency |
| --- | --- | --- |
| CCOC(=O)c1c(C(C#N)=CN)c2ccc(Cl)c(Cl)c2n1C | inactive: -23.3% | – |
| N[C@@H](Cc1ccc(N(CCCl)CCCl)cc1)C(=O)O | – | inconclusive: 31.6 µM [inhibitor, partial curve, poor fit] |
| O=c1c2ccccc2nc(/C=C/c2ccccc2)n1-c1ccccc1F | – | inconclusive: 39.8 µM [inhibitor, single point] |
| C[C@H](N)[C@H](O)c1ccc(O)c(O)c1 | inactive: -5.7% | – |
| C[C@]12CCC(=O)C=C1CC[C@@H]1[C@H]3CC[C@](C)(O)[C@@]3(C)CC[C@@H]12 | – | inconclusive: 35.5 µM [inhibitor, partial curve, poor fit] |
| CCOc1ccc(NC(=O)c2cccn(Cc3cccc(Cl)c3)c2=O)cc1 | – | active: 15.8 µM |
| COc1ccc(NC(=O)CCc2nc(C3=CCN(Cc4cccc(Cl)c4)CC3)no2)cc1OC | – | inconclusive: 14.1 µM [inhibitor, partial curve, poor fit] |
| Cc1ccccc1-n1c(Cn2cnc3c(N)ncnc32)nc2cccc(C)c2c1=O | – | inconclusive: 2.73 µM [inhibitor, full curve] |
| O=C(Nc1ccc(Br)cc1C(=O)c1ccccc1Cl)c1ccccc1F | inactive: -11% | – |
| CC[C@H](O)C(C[C@H](C)N(C)C)(c1ccccc1)c1ccccc1 | – | inconclusive: 100 µM [inhibitor, single point] |
| Cc1ccc(-n2nc(C)c3c2NC(=O)CSC3c2ccc(O)cc2)cc1Cl (stereo unspecified) | – | inconclusive: 14.1 µM [inhibitor, partial curve, poor fit] |
| O=c1c2ccccc2nc(/C=C/c2ccccc2O)n1-c1ccc(Br)cc1 | – | inconclusive: 39.8 µM [inhibitor, single point] |
| Cc1ccccc1-n1c(/C=C/c2ccc(O)cc2)nc2ccccc2c1=O | – | inconclusive: 39.8 µM [inhibitor, single point] |
| COc1ccc(NC(C)=O)cc1NC(=O)c1cccn(Cc2ccccc2)c1=O | inactive: -12.2% | – |
| O=C1C(I)=CC(=C(c2cc(I)c(O)c(I)c2)c2ccccc2C(=O)O)C=C1I | inactive: -4.19% | – |
| CC[C@H]1C[C@H]2[C@@H]3CCC4=CC(=O)CC[C@@H]4[C@H]3CC[C@]2(C)[C@H]1O | inactive: -6.92% | – |
| c1ccc2c(c1)Sc1ccccc1N2CC1CN2CCC1CC2 (stereo unspecified) | – | inconclusive: 35.5 µM [inhibitor, partial curve, poor fit] |
| CC(C)[N+](C)(CCC(C(N)=O)(c1ccccc1)c1ccccc1)C(C)C | inactive: 5.17% | – |
| C[C@@H]1[C@@H](C(=O)C[C@H]2O[C@@H]3O[C@]4(C)CC[C@@H]5[C@H](C)CC[C@@H]([C@H]2C)[C@@]35OO4)O[C@@H]2O[C@]3(C)CC[C@H]4[C@H](C)CC[C@@H]1[C@@]24OO3 | – | inconclusive: 27.3 µM [inhibitor, partial curve] |
| Cc1ccc(NC(=O)N(Cc2ccc3c(c2)OCO3)C2CCN(Cc3ccccc3)CC2)cc1Cl | – | inconclusive: 25.1 µM [inhibitor, partial curve, poor fit] |
| C[C@]12Cc3cn[nH]c3C[C@@H]1CC[C@@H]1[C@H]2CC[C@@]2(C)[C@H]1CC[C@]2(C)O | inactive: -4.28% | – |
| Cc1ccc(Cn2cccc(C(=O)Nc3nnc(C)s3)c2=O)cc1 | inactive: -0.463% | – |
| CCOC(=O)c1ccc(NC(=O)c2cccn(Cc3ccc(C)cc3)c2=O)cc1 | inactive: -1.73% | – |
| C[C@]12CC[C@H]3[C@@H](CCC4=CC(=O)CC[C@@]43C)[C@H]1CC[C@H]2OC(=O)CCC1CCCC1 | inactive: -2.85% | – |
| Cc1cccc(-n2c(/C=C/c3c[nH]c4ccccc34)nc3ccccc3c2=O)c1 | – | inconclusive: 25.1 µM [inhibitor, single point] |
| CSc1ccc(CN2CCN(C(=O)COc3cccc(C)c3)CC2)cc1 | – | inconclusive: 15.8 µM [inhibitor, partial curve, poor fit] |

| Compound | activity change, negative = inhibition | Potency |
| --- | --- | --- |
| COc1ccc(-n2c(/C=C\c3ccccc3F)nc3ccccc3c2=O)c(OC)c1 | – | inconclusive: 39.8 µM [inhibitor, single point] |
| CO/C=C(/C(=O)OC)c1ccccc1Oc1cc(Oc2ccccc2C#N)ncn1 | – | inconclusive: 20 µM [inhibitor, partial curve] |
| C=CCC1(C(C)CC)C(=O)NC(=O)NC1=O (stereo unspecified) | inactive: 6.25% | – |
| Cc1nnc2n1-c1sc(CCc3ccc(CC(C)C)cc3)cc1C(c1ccccc1Cl)=NC2C (stereo unspecified) | – | inconclusive: 31.6 µM [inhibitor, partial curve, poor fit] |
| CC(C)=CC1C(C(=O)OCc2cccc(Oc3ccccc3)c2)C1(C)C (stereo unspecified) | inactive: 2.33% | – |
| CCc1cccc(NC(=O)CN2C(=O)CN=C(c3ccccc3F)c3cc(Cl)ccc32)c1 | – | inconclusive: 20 µM [inhibitor, single point] |
| CCN[C@@H](C)Cc1cccc(C(F)(F)F)c1 | inactive: -0.402% | – |
| C=C1C[C@H]2[C@H]3CCC(=O)[C@@]3(C)CC[C@@H]2[C@@]2(C)C=CC(=O)C=C12 | inactive: -6.46% | – |
| Clc1ccc(CO/N=C(\Cn2ccnc2)c2ccc(Cl)cc2Cl)c(Cl)c1 | – | inconclusive: 25.1 µM [inhibitor, single point] |
| COC(=O)c1ccc(NC(=O)c2cccn(Cc3ccccc3C)c2=O)cc1 | – | inconclusive: 1.26 µM [inhibitor, full curve, poor fit] |
| COc1cc([C@@H]2c3cc4c(cc3[C@@H](O)C3COC(=O)C32)OCO4)cc(OC)c1O (stereo partly specified) | – | inconclusive: 0.0193 µM [inhibitor, full curve] |
| Cc1cc(C)cc(OCC(=O)Nc2ccc(Cl)cc2C(=O)c2ccccc2)c1 | inactive: -0.948% | – |
| CN1CCN(c2ccc([N+](=O)[O-])c3no[n+]([O-])c23)CC1 | – | inconclusive: 48.5 µM [inhibitor, partial curve, poor fit] |
| Clc1ccc(CSC(Cn2ccnc2)c2ccc(Cl)cc2Cl)cc1 (stereo unspecified) | – | inconclusive: 39.8 µM [inhibitor, single point] |
| CCOC(=O)c1ccc(NC(=O)c2sc3nc4c(cc3c2N)N2CCC4CC2)cc1 | – | inconclusive: 2.82 µM [inhibitor, full curve] |
| CCCC1=Nc2cc(C(=O)NC3CCC(C)CC3)ccc2Sc2ccccc21 (stereo unspecified) | – | inconclusive: 22.4 µM [inhibitor, partial curve] |
| CC(C)(O)C=CC(=O)[C@](C)(O)[C@H]1[C@H](O)C[C@]2(C)[C@@H]3CC=C4[C@@H](C=C(O)C(=O)C4(C)C)[C@]3(C)C(=O)C[C@@]12C | – | inconclusive: 0.243 µM [inhibitor, full curve] |
| COc1cccc2c1[C@]13CCN(CC4CC4)[C@H](C2)[C@]1(OC)CCC(=O)C3 | inactive: 1.75% | – |
| Nc1c(C(=O)Nc2cccc(Br)c2)sc2nc3c(cc12)N1CCC3CC1 | – | inconclusive: 22.4 µM [inhibitor, single point] |
| CCN(CC)C(=O)c1ccc(NC(=O)CCn2nc(-c3ccc(C)cc3)c3ccccc3c2=O)cc1 | – | inconclusive: 31.6 µM [inhibitor, single point] |
| CC1=C(O)C(=O)C=C2C1=CC=C1[C@@]2(C)CC[C@@]2(C)[C@@H]3C[C@](C)(C(=O)O)CC[C@]3(C)CC[C@]12C | – | inconclusive: 5.44 µM [inhibitor, full curve] |
| CCN(CC)C(=O)c1ccc(NC(=O)CCn2nc(-c3ccc(Cl)cc3)c3ccccc3c2=O)cc1 | – | inconclusive: 35.5 µM [inhibitor, partial curve, poor fit] |
| Cc1c(N)nc([C@H](CC(N)=O)NC[C@@H](N)C(N)=O)nc1C(=O)N[C@H](C(=O)N[C@@H](C)[C@H](O)[C@@H](C)C(=O)N[C@@H](C(=O)NCCc1nc(-c2nc(C(=O)NCCC[S+](C)C)cs2)cs1)[C@@H](C)O)C(O[C@H]1O[C@H](CO)[C@H](O)[C@@H](O)[C@@H]1O[C@H]1O[C@H](CO)[C@@H](O)[C@H](OC(N)=O)[C@H]1O)c1cnc[nH]1 (stereo partly specified) | inactive: -14.5% | – |
| C[C@@H]1CC[C@@]2(OC1)O[C@H]1C[C@H]3[C@@H]4CC=C5C[C@@H](O[C@@H]6O[C@H](CO)[C@@H](O[C@@H]7O[C@@H](C)[C@H](O)[C@@H](O)[C@@H]7O)[C@H](O)[C@@H]6O[C@@H]6O[C@@H](C)[C@H](O)[C@@H](O)[C@@H]6O)CC[C@]5(C)[C@@H]4CC[C@]3(C)[C@@H]1[C@H]2C | inactive: -5.59% | – |
| c1ccc(N2CCNCC2)cc1 | inactive: -1.58% | – |
